Screen size: about 310,000 compounds; about 14,000 (4.5%) showed an effect of 50% or more. Effects have a minus sign here. This is one part of the list.
Biological target: human ether-à-go-go-related gene (hERG) potassium channel (human, UniProt Q12809)
Experiment: primary screen, population patch clamp on CHO cells stably expressing hERG
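Note: peak tail current of the secondary pulse compared with the same well before compound.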

Chain of human ether-à-go-go-related gene (hERG) potassium channel (Q12809 whole entry, looked up): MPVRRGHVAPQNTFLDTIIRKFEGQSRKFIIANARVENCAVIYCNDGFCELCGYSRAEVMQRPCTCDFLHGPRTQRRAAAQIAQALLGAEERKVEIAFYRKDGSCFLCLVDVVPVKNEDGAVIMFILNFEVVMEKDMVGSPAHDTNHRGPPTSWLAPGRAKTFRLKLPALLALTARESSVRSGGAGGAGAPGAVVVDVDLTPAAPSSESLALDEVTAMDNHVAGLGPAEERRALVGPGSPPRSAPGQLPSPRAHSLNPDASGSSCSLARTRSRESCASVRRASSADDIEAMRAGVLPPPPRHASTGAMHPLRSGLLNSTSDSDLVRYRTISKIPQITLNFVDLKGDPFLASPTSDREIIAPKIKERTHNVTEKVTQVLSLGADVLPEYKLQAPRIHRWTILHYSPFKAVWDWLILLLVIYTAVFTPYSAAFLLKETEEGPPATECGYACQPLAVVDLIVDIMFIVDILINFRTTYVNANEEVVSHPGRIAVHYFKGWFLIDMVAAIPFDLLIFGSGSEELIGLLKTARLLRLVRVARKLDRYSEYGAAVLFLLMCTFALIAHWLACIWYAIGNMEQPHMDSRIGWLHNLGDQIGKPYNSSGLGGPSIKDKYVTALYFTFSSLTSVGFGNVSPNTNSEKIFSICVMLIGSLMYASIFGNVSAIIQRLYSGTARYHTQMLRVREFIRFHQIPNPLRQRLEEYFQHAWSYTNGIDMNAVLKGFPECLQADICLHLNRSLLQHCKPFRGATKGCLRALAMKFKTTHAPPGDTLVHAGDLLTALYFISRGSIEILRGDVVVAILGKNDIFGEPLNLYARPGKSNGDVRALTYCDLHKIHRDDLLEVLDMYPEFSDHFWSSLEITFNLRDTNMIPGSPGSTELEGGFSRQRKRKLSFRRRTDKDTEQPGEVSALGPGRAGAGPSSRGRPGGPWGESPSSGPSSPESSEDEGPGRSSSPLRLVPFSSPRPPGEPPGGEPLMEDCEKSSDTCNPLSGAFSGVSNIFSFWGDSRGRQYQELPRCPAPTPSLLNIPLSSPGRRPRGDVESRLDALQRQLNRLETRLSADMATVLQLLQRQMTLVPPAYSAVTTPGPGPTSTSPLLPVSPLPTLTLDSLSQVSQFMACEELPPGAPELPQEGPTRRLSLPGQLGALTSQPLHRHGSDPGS

How did the “hERG current change (%, negative = inhibition) at 10uM” value turn out when `O=C(CSc1nc2cc(Cl)ccc2s1)N1CCN(C(=O)c2ccco2)CC1` was run?
Its value is -71.6%.

For `Cc1ccc(S(=O)(=O)C2(C(=O)N(C)C3CCCCC3)CC2)cc1`, which “hERG current change (%, negative = inhibition) at 10uM” value is on record?
The value was -3.32%.

For `COc1ccccc1NC(=O)C(C)Nc1ccc(C)c(Cl)c1` (stereo not shown), which “hERG current change (%, negative = inhibition) at 10uM” value is on record?
The value was 6.45%.

With `Cc1cc(OCCCC(=O)N2CCCCC2)cc(C)c1Cl` as the molecule, how does the “hERG current change (%, negative = inhibition) at 10uM” value read?
The value was -5.69%.

With `COc1cc(/C=N/NC(=O)c2ccncc2)cc2c1OCO2` as the molecule, how does the “hERG current change (%, negative = inhibition) at 10uM” value read?
The value was 16.2%.

Which “hERG current change (%, negative = inhibition) at 10uM” value does the source give for `COCCn1c(N)c(N(Cc2ccccc2)C(=O)c2cc3ccccc3o2)c(=O)[nH]c1=O` here?
Its value is 18.1%.

For `O=C(CNCC1CCCO1)Nc1ccccc1N1CCOCC1.O=C(O)C(=O)O` (stereo not shown), which “hERG current change (%, negative = inhibition) at 10uM” value is on record?
Its value is 14.8%.

For `COC(=O)c1sccc1N/N=C(\C)c1ccc(F)c(Cl)c1`, which “hERG current change (%, negative = inhibition) at 10uM” value is on record?
The value was 6.09%.

Which “hERG current change (%, negative = inhibition) at 10uM” value does the source give for `CCO[C@H]1OC(C(=O)NC2CC2)=C[C@@H](C2CCCCC2)[C@@H]1CCCO` here?
Its value is -21.7%.

How did the “hERG current change (%, negative = inhibition) at 10uM” value turn out when `COc1cc(CN2CCCC(C(=O)c3ccc(SC)cc3)C2)cc(Cl)c1O` (stereo not shown) was run?
Its value is -72.8%.

How did the “hERG current change (%, negative = inhibition) at 10uM” value turn out when `O=C(COC(=O)/C=C/c1ccc(C(F)(F)F)cc1)NCCC1=CCCCC1` was run?
Its value is 4.39%.

With `CC(C)CN(C(=O)CCC(=O)OCc1ccc(Cl)cc1Cl)c1c(N)n(CC(C)C)c(=O)[nH]c1=O` as the molecule, how does the “hERG current change (%, negative = inhibition) at 10uM” value read?
Its value is -47.3%.

For `Cc1cccc(NC2=NCCCS2)c1C`, which “hERG current change (%, negative = inhibition) at 10uM” value is on record?
Its value is 15%.

For `Cc1ccc(S(=O)(=O)N(C)C)cc1NC(=O)COC(=O)C1COc2ccccc2O1` (stereo not shown), which “hERG current change (%, negative = inhibition) at 10uM” value is on record?
Its value is 7.22%.

With `O=C1c2ccccc2C(=O)C12OC2c1cccc2ccccc12` (stereo not shown) as the molecule, how does the “hERG current change (%, negative = inhibition) at 10uM” value read?
Its value is -69.2%.

How did the “hERG current change (%, negative = inhibition) at 10uM” value turn out when `O=C(Cn1nnc2ccccc2c1=O)NCCc1ccc(Cl)cc1Cl` was run?
The value was -7.66%.

`CCOC(=O)c1ccc(Oc2nc(N(C)C)nc(N(C)C)n2)cc1` was tested. Which “hERG current change (%, negative = inhibition) at 10uM” value did it give?
Its value is 10.3%.

For `CCCc1cc(=O)n2nc(N3CCC(C(=O)Nc4cccc(C(C)=O)c4)CC3)sc2n1`, which “hERG current change (%, negative = inhibition) at 10uM” value is on record?
The value was 6.07%.

`CC1CCN(C(=O)c2ccc3ccccc3c2)CC1` was tested. Which “hERG current change (%, negative = inhibition) at 10uM” value did it give?
The value was 7.46%.

For `Cc1nonc1OCCNC(=O)C12CC3CC(CC(C3)C1)C2`, which “hERG current change (%, negative = inhibition) at 10uM” value is on record?
The value was -9.87%.

Which “hERG current change (%, negative = inhibition) at 10uM” value does the source give for `CCn1c(SC(C)C(=O)N2CCOCC2)nc2sc(C)c(C)c2c1=O` (stereo not shown) here?
Its value is 3.37%.

How did the “hERG current change (%, negative = inhibition) at 10uM” value turn out when `O=C(O)C1CCN(C(=O)CCc2ccccc2)CC1` was run?
The value was 4.94%.

How did the “hERG current change (%, negative = inhibition) at 10uM” value turn out when `COC(=O)N/C(C)=C1/NC(=O)c2ccccc2C(c2ccccc2)N1` (stereo not shown) was run?
The value was -20.5%.

Which “hERG current change (%, negative = inhibition) at 10uM” value does the source give for `CCN(CC)Cc1c(O)ccc2cc(-c3nc4ccccc4n3C)c(=O)oc12` here?
The value was 8.83%.

For `N#Cc1nc(COc2ccccc2Cl)oc1N1CCCC1`, which “hERG current change (%, negative = inhibition) at 10uM” value is on record?
Its value is -32.9%.

How did the “hERG current change (%, negative = inhibition) at 10uM” value turn out when `CCCCCCCSc1nc(N)cc(=O)[nH]1` was run?
The value was 8.28%.

How did the “hERG current change (%, negative = inhibition) at 10uM” value turn out when `O=C(O)C(CCCCN1C(=O)C2C3C=CC(C3)C2C1=O)N1C(=O)C2C3C=CC(C3)C2C1=O` (stereo not shown) was run?
Its value is 2.41%.

Which “hERG current change (%, negative = inhibition) at 10uM” value does the source give for `CC(C)N1C/C(=C/c2ccsc2)C(=O)/C(=C/c2ccsc2)C1` here?
Its value is -47.4%.

How did the “hERG current change (%, negative = inhibition) at 10uM” value turn out when `O=[N+]([O-])c1ccccc1CN1CCN(Cc2ccccn2)CC1` was run?
The value was 2.42%.

With `CC(CCc1ccccc1)NC(=O)CSc1nccc(=O)[nH]1` (stereo not shown) as the molecule, how does the “hERG current change (%, negative = inhibition) at 10uM” value read?
The value was 4.96%.

For `Cc1cc(C)n2nc(SCC(=O)c3c(N)n(CC(C)C)c(=O)n(C)c3=O)nc2n1`, which “hERG current change (%, negative = inhibition) at 10uM” value is on record?
Its value is -18.6%.

Which “hERG current change (%, negative = inhibition) at 10uM” value does the source give for `Cc1ccc(CC(=O)NCc2ccc3c(c2)OCO3)cc1` here?
Its value is 2.24%.

With `c1cn2c(Nc3ccc4c(c3)OCCO4)c(-c3ccc(N4CCOCC4)cc3)nc2cn1` as the molecule, how does the “hERG current change (%, negative = inhibition) at 10uM” value read?
The value was -26.1%.

`CCOc1ccc(-n2c(C)nc(O)c2N=Nc2ccccc2)cc1` was tested. Which “hERG current change (%, negative = inhibition) at 10uM” value did it give?
Its value is 13.6%.

With `CCOCCCNC(=O)CN1C(=O)CSc2cc(S(=O)(=O)N3CCCCCC3)ccc21` as the molecule, how does the “hERG current change (%, negative = inhibition) at 10uM” value read?
Its value is -13.1%.

With `Cc1ccc(C)c(N2C(=O)c3ccc(C(=O)OCC(=O)c4c(N)n(C)c(=O)n(C)c4=O)cc3C2=O)c1` as the molecule, how does the “hERG current change (%, negative = inhibition) at 10uM” value read?
The value was -19.9%.

For `Cn1nc(C(=O)OCC(=O)Nc2ccc(S(N)(=O)=O)cc2)c2ccccc2c1=O`, which “hERG current change (%, negative = inhibition) at 10uM” value is on record?
Its value is 15.3%.

For `CCC1=NN=C(c2ccc(F)cc2)C(c2c[nH]c3ccccc23)N1O` (stereo not shown), which “hERG current change (%, negative = inhibition) at 10uM” value is on record?
The value was 0.967%.

How did the “hERG current change (%, negative = inhibition) at 10uM” value turn out when `CN1CCC(=O)N(CCOc2ccccc2)CC1` was run?
The value was 19.4%.

With `COC(=O)CC(NC(=O)Nc1ccc(C)cc1)c1cccc([N+](=O)[O-])c1` (stereo not shown) as the molecule, how does the “hERG current change (%, negative = inhibition) at 10uM” value read?
Its value is -9.1%.

With `O=C(CCOc1ccccc1)Nc1ccc(Br)cc1` as the molecule, how does the “hERG current change (%, negative = inhibition) at 10uM” value read?
Its value is 13.6%.

`Cc1ccc(OCC(=O)N2CCCCCCC2)cc1C` was tested. Which “hERG current change (%, negative = inhibition) at 10uM” value did it give?
The value was -4.47%.

Which “hERG current change (%, negative = inhibition) at 10uM” value does the source give for `S=c1[nH]nc(COc2ccccc2)n1/N=C/c1c(Cl)cccc1Cl` here?
Its value is 24.1%.

With `COc1ccccc1CC(NC(C)=O)C(=O)NC1CCN(C(=O)Nc2ccc(F)cc2)CC1` (stereo not shown) as the molecule, how does the “hERG current change (%, negative = inhibition) at 10uM” value read?
The value was -1.82%.

Which “hERG current change (%, negative = inhibition) at 10uM” value does the source give for `O=C(C[n+]1cccc(O)c1)NCc1ccc(Cl)cc1.[Cl-]` here?
The value was 24.2%.

`O=Cc1ccccc1-n1cccn1` was tested. Which “hERG current change (%, negative = inhibition) at 10uM” value did it give?
The value was 12.5%.

How did the “hERG current change (%, negative = inhibition) at 10uM” value turn out when `O=C(OCC1O[C@@H](OC(=O)c2cc(O)c(O)c(O)c2)[C@@H](OC(=O)c2cc(O)c(O)c(O)c2)[C@@H](OC(=O)c2cc(O)c(O)c(O)c2)[C@@H]1OC(=O)c1cc(O)c(O)c(O)c1)c1cc(O)c(O)c(O)c1` (stereo partly shown) was run?
Its value is 33.9%.

Which “hERG current change (%, negative = inhibition) at 10uM” value does the source give for `COc1cccc(NC(=O)CSc2nnc(Cn3nnc4ccccc43)n2C)c1` here?
The value was -11.7%.

For `O=C(Nc1ccc(Cl)cc1C(=O)N1CCOCC1)c1cccc([N+](=O)[O-])c1`, which “hERG current change (%, negative = inhibition) at 10uM” value is on record?
Its value is -12.1%.

`CCOC(=O)CSc1nc2c(sc(=S)n2CCc2ccccc2)c(=O)n1Cc1ccco1` was tested. Which “hERG current change (%, negative = inhibition) at 10uM” value did it give?
The value was 2.54%.

With `CCOC(=O)c1c(C)[nH]c(C)c1C(=O)CSc1nnc(-c2ccncc2)n1Cc1ccccc1` as the molecule, how does the “hERG current change (%, negative = inhibition) at 10uM” value read?
Its value is -46.6%.

For `CCCCn1c(SCC(=O)Nc2cc(C)[nH]n2)nc2ccsc2c1=O`, which “hERG current change (%, negative = inhibition) at 10uM” value is on record?
The value was 7.3%.

How did the “hERG current change (%, negative = inhibition) at 10uM” value turn out when `FC(F)(F)c1cccc(N2CCC(N=CN3CCCCCC3)=N2)c1` was run?
Its value is -21.2%.

For `Cc1ccc(C)c(N2CCN(S(=O)(=O)c3ccc4c(c3)C(C)(C)C(=O)N4C)CC2)c1`, which “hERG current change (%, negative = inhibition) at 10uM” value is on record?
The value was 3.88%.

For `COc1ccc(NC(=O)N(Cc2cc3cc(OC)ccc3[nH]c2=O)CC2CCCO2)cc1` (stereo not shown), which “hERG current change (%, negative = inhibition) at 10uM” value is on record?
The value was -31.6%.

From paper PMC4336329 (PLoS ONE, 2015)
